Assay results: PMC2682205, “Cdc7p-Dbf4p Regulates Mitotic Exit by Inhibiting Polo Kinase” (PLoS Genetics, 2009)
These are yes or no findings as the source states them, for the method shown. For some of these results: Binding seen in cells or lysates may run through a third protein. Some results given as binding are weak or reduced against the parent protein; the word gives no strength. Tags and fused reporters may be left off the sequences shown. Values belong to the binder of their own block, whether it stands above or below them.

Chains of the proteins cited; added tags and fusions are not shown. Lines headed by an entry give the natural chain unless they say otherwise; changes in a name come on top.
UniProt P06243: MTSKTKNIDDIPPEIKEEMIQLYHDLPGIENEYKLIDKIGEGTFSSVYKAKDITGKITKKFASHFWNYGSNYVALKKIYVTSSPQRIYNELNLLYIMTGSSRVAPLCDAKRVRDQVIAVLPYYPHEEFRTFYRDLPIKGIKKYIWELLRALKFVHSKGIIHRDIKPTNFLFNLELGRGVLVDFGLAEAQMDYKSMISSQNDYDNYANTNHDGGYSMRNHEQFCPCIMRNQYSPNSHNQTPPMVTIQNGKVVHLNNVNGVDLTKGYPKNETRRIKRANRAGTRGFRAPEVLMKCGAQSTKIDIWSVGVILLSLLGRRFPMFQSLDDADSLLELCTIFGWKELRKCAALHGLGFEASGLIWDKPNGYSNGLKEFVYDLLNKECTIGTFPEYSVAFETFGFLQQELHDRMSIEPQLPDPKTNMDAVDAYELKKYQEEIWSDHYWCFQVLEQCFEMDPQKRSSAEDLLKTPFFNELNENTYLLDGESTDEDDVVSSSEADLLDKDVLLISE

Tests used:
[1] = biological target: T1, Gal4 DNA binding domain (GBD) fusion to Dbf4p_(67–227) (budding yeast (S. cerevisiae)) (UniProt P32325); assay: two-hybrid; GBD-DBF4 baits and GAD-CDC5 preys co-transformed, 10-fold serial dilutions spotted on SCM–Trp–Leu–His with 2 mM 3AT, 30°C, 2 to 3 days (Figure 1A, C)
T1 sequence: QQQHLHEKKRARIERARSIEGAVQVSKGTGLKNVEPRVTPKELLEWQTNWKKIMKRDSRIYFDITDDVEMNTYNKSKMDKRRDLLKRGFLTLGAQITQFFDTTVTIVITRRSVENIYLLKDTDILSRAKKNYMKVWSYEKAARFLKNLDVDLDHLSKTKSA

[2] = biological target: HA-Cdc7p-Dbf4-NΔ109p (budding yeast (S. cerevisiae)) (UniProt P06243+P32325); assay: co-IP; Sf9 cells co-infected with baculoviruses for HA-Cdc7p, 3Myc-NΔ65Polo and Dbf4p derivatives; immunoprecipitation with 12CA5 (anti-HA); blots with 9E10 (Myc), anti-Cdc7p and anti-Dbf4p
[3] = biological target: HA-Cdc7p-Dbf4-NΔ221p (budding yeast (S. cerevisiae)) (UniProt P06243+P32325); assay: as above
[4] = biological target: HA-Cdc7p-Dbf4-NΔ65p (budding yeast (S. cerevisiae)) (UniProt P06243+P32325); assay: as above
[5] = biological target: HA-Cdc7p-Dbf4p kinase (wild type, full length) (budding yeast (S. cerevisiae)) (UniProt P06243+P32325); assay: as above
[6] = biological target: Endogenous HA3-Cdc7p-Dbf4p complex (budding yeast (S. cerevisiae; endogenous in a W303 derivative)) (UniProt P06243+P32325); assay: co-IP; yeast at endogenous protein levels, nocodazole arrest; extracts in NP-40 lysis buffer (20 mM Tris-HCl, 150 mM NaCl, 0.5% NP-40, 1 mM EGTA); HA3-Cdc7p precipitated with 12CA5 on protein A-Sepharose; blots for Cdc7, Dbf4 and Cdc5-Myc

B3: GAD-Polo_(510–705) (domain or fragment, UniProt P32562 510-705)
chain: HPMIVTKWVDYSNKHGFSYQLSTEDIGVLFNNGTTVLRLADAEEFWYISYDDREGWVASHYLLSEKPRELSRHLEVVDFFAKYMKANLSRVSTFGREEYHKDDVFLRRYTRYKPFVMFELSDGTFQFNFKDHHKMAISDGGKLVTYISPSHESTTYPLVEVLKYGEIPGYPESNFREKLTLIKEGLKQKSTIVTVD
- binding [1]: no binding

B4: Cdc5-Myc15 (enzyme, UniProt P32562 1-705)
chain: MSLGPLKAINDKQLNTRSKLVHTPIKGNTADLVGKENHFKQTKRLDPNNDHHHQPAQKKKREKLSALCKTPPSLIKTRGKDYHRGHFLGEGGFARCFQIKDDSGEIFAAKTVAKASIKSEKTRKKLLSEIQIHKSMSHPNIVQFIDCFEDDSNVYILLEICPNGSLMELLKRRKVLTEPEVRFFTTQICGAIKYMHSRRVIHRDLKLGNIFFDSNYNLKIGDFGLAAVLANESERKYTICGTPNYIAPEVLMGKHSGHSFEVDIWSLGVMLYALLIGKPPFQARDVNTIYERIKCRDFSFPRDKPISDEGKILIRDILSLDPIERPSLTEIMDYVWFRGTFPPSIPSTVMSEAPNFEDIPEEQSLVNFKDCMEKSLLLESMSSDKIQRQKRDYISSIKSSIDKLEEYHQNRPFLPHSLSPGGTKQKYKEVVDIEAQRRLNDLAREARIRRAQQAVLRKELIATSTNVIKSEISLRILASECHLTLNGIVEAEAQYKMGGLPKSRLPKIKHPMIVTKWVDYSNKHGFSYQLSTEDIGVLFNNGTTVLRLADAEEFWYISYDDREGWVASHYLLSEKPRELSRHLEVVDFFAKYMKANLSRVSTFGREEYHKDDVFLRRYTRYKPFVMFELSDGTFQFNFKDHHKMAISDGGKLVTYISPSHESTTYPLVEVLKYGEIPGYPESNFREKLTLIKEGLKQKSTIVTVD
- binding [6]: binds

Continued, values first:

- binding [1]: binds
B1: GAD-Polo_(454–705) (domain or fragment, UniProt P32562 454-705)
chain: AVLRKELIATSTNVIKSEISLRILASECHLTLNGIVEAEAQYKMGGLPKSRLPKIKHPMIVTKWVDYSNKHGFSYQLSTEDIGVLFNNGTTVLRLADAEEFWYISYDDREGWVASHYLLSEKPRELSRHLEVVDFFAKYMKANLSRVSTFGREEYHKDDVFLRRYTRYKPFVMFELSDGTFQFNFKDHHKMAISDGGKLVTYISPSHESTTYPLVEVLKYGEIPGYPESNFREKLTLIKEGLKQKSTIVTVD

- binding [2]: no binding
- binding [3]: no binding
- binding [4]: binds
- binding [5]: binds
B2: 3Myc-NΔ65Polo (domain or fragment, UniProt P32562 66-705)
chain: ALCKTPPSLIKTRGKDYHRGHFLGEGGFARCFQIKDDSGEIFAAKTVAKASIKSEKTRKKLLSEIQIHKSMSHPNIVQFIDCFEDDSNVYILLEICPNGSLMELLKRRKVLTEPEVRFFTTQICGAIKYMHSRRVIHRDLKLGNIFFDSNYNLKIGDFGLAAVLANESERKYTICGTPNYIAPEVLMGKHSGHSFEVDIWSLGVMLYALLIGKPPFQARDVNTIYERIKCRDFSFPRDKPISDEGKILIRDILSLDPIERPSLTEIMDYVWFRGTFPPSIPSTVMSEAPNFEDIPEEQSLVNFKDCMEKSLLLESMSSDKIQRQKRDYISSIKSSIDKLEEYHQNRPFLPHSLSPGGTKQKYKEVVDIEAQRRLNDLAREARIRRAQQAVLRKELIATSTNVIKSEISLRILASECHLTLNGIVEAEAQYKMGGLPKSRLPKIKHPMIVTKWVDYSNKHGFSYQLSTEDIGVLFNNGTTVLRLADAEEFWYISYDDREGWVASHYLLSEKPRELSRHLEVVDFFAKYMKANLSRVSTFGREEYHKDDVFLRRYTRYKPFVMFELSDGTFQFNFKDHHKMAISDGGKLVTYISPSHESTTYPLVEVLKYGEIPGYPESNFREKLTLIKEGLKQKSTIVTVD
